Measurements: the supplement of paper PMC4967469

Compound: Cn1cc(C2=C(c3cn(C4CCN(Cc5ccccn5)CC4)c4ccccc34)C(=O)NC2=O)c2ccccc21 [LY317615]
Assay: Viability of human cancer cell lines after 72 h of drug (GDSC screen)
Conditions: top dose inferred
Description: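 Human cancer cell lines in 384-well plates, medium with 10% serum, drug for 72 h over a 256-fold dose range (nine 2-fold or five 4-fold steps up to the top dose). Adherent lines were fixed and stained with the nucleic acid dye Syto60, suspension lines read with resazurin; signal relative to control wells, capped at 0 and 100%. One two-parameter sigmoid per drug and line, fitted in a mixed model over all curves with the slope shared within a line.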

NCI-H82 (small cell lung carcinoma, suspension, top dose 20 µM)
AUC: 0.955 | IC50: > 20 µM

NCI-H187 (small cell lung carcinoma, suspension, top dose 20 µM)
AUC: 0.943 | IC50: > 20 µM

NCI-H196 (small cell lung carcinoma, adherent, top dose 20 µM)
AUC: 0.837 | IC50: 14.3 µM

NCI-H209 (small cell lung carcinoma, suspension, top dose 20 µM)
AUC: 0.985 | IC50: > 20 µM

NCI-H211 (small cell lung carcinoma, adherent, top dose 20 µM)
AUC: 0.616 | IC50: 2.58 µM

NCI-H226 (lung squamous cell carcinoma, adherent, top dose 20 µM)
AUC: 0.873 | IC50: > 20 µM

NCI-H292 (lung adenocarcinoma, adherent, top dose 20 µM)
AUC: 0.938 | IC50: > 20 µM

NCI-H322M (lung adenocarcinoma, suspension, top dose 20 µM)
AUC: 0.733 | IC50: 6.88 µM

NCI-H358 (lung adenocarcinoma, adherent, top dose 20 µM)
AUC: 0.37 | IC50: 0.525 µM

NCI-H441 (lung adenocarcinoma, adherent, top dose 20 µM)
AUC: 0.939 | IC50: > 20 µM

NCI-H446 (small cell lung carcinoma, semi-adherent, top dose 20 µM)
AUC: 0.942 | IC50: > 20 µM

NCI-H460 (large cell lung carcinoma, adherent, top dose 20 µM)
AUC: 0.99 | IC50: > 20 µM

NCI-H510A (small cell lung carcinoma, semi-adherent, top dose 20 µM)
AUC: 0.951 | IC50: > 20 µM

NCI-H520 (lung squamous cell carcinoma, adherent, top dose 20 µM)
AUC: 0.831 | IC50: 13.3 µM

NCI-H522 (lung adenocarcinoma, adherent, top dose 20 µM)
AUC: 0.822 | IC50: 14.7 µM

NCI-H524 (small cell lung carcinoma, suspension, top dose 20 µM)
AUC: 0.911 | IC50: > 20 µM

NCI-H526 (small cell lung carcinoma, suspension, top dose 20 µM)
AUC: 0.975 | IC50: > 20 µM

NCI-H596 (lung adenocarcinoma, adherent, top dose 20 µM)
AUC: 0.957 | IC50: > 20 µM

NCI-H630 (large intestine, adherent, top dose 20 µM)
AUC: 0.943 | IC50: > 20 µM

NCI-H647 (non-small cell lung carcinoma, adherent, top dose 20 µM)
AUC: 0.436 | IC50: 0.826 µM

NCI-H650 (lung adenocarcinoma, adherent, top dose 20 µM)
AUC: 0.879 | IC50: > 20 µM

NCI-H661 (large cell lung carcinoma, adherent, top dose 20 µM)
AUC: 0.912 | IC50: > 20 µM

NCI-H716 (large intestine, suspension, top dose 20 µM)
AUC: 0.776 | IC50: 10.1 µM

NCI-H720 (lung carcinoid, suspension, top dose 20 µM)
AUC: 0.992 | IC50: > 20 µM

NCI-H727 (lung carcinoid, adherent, top dose 20 µM)
AUC: 0.623 | IC50: 3.39 µM

NCI-H747 (large intestine, adherent, top dose 20 µM)
AUC: 0.442 | IC50: 0.838 µM

NCI-H748 (small cell lung carcinoma, suspension, top dose 20 µM)
AUC: 0.886 | IC50: > 20 µM

NCI-H810 (large cell lung carcinoma, adherent, top dose 20 µM)
AUC: 0.963 | IC50: > 20 µM

NCI-H838 (lung adenocarcinoma, adherent, top dose 20 µM)
AUC: 0.98 | IC50: > 20 µM

NCI-H841 (small cell lung carcinoma, adherent, top dose 20 µM)
AUC: 0.95 | IC50: > 20 µM

NCI-H847 (small cell lung carcinoma, adherent, top dose 20 µM)
AUC: 0.906 | IC50: 18.1 µM

NCI-H1048 (small cell lung carcinoma, adherent, top dose 20 µM)
AUC: 0.953 | IC50: > 20 µM

NCI-H1092 (small cell lung carcinoma, suspension, top dose 20 µM)
AUC: 0.942 | IC50: > 20 µM

NCI-H1155 (large cell lung carcinoma, suspension, top dose 20 µM)
AUC: 0.928 | IC50: > 20 µM

NCI-H1299 (large cell lung carcinoma, adherent, top dose 20 µM)
AUC: 0.949 | IC50: > 20 µM

NCI-H1304 (small cell lung carcinoma, suspension, top dose 20 µM)
AUC: 0.954 | IC50: > 20 µM

NCI-H1355 (lung adenocarcinoma, adherent, top dose 20 µM)
AUC: 0.861 | IC50: > 20 µM

NCI-H1395 (lung adenocarcinoma, adherent, top dose 20 µM)
AUC: 0.782 | IC50: 11.4 µM

NCI-H1417 (small cell lung carcinoma, suspension, top dose 20 µM)
AUC: 0.941 | IC50: > 20 µM

NCI-H1435 (lung adenocarcinoma, semi-adherent, top dose 20 µM)
AUC: 0.911 | IC50: > 20 µM

NCI-H1436 (small cell lung carcinoma, suspension, top dose 20 µM)
AUC: 0.91 | IC50: > 20 µM

NCI-H1437 (lung adenocarcinoma, adherent, top dose 20 µM)
AUC: 0.499 | IC50: 1.24 µM

NCI-H1563 (lung adenocarcinoma, adherent, top dose 20 µM)
AUC: 0.54 | IC50: 1.64 µM

NCI-H1568 (lung adenocarcinoma, adherent, top dose 20 µM)
AUC: 0.98 | IC50: > 20 µM

NCI-H1573 (lung adenocarcinoma, adherent, top dose 20 µM)
AUC: 0.817 | IC50: 10.8 µM

NCI-H1581 (large cell lung carcinoma, semi-adherent, top dose 20 µM)
AUC: 0.929 | IC50: > 20 µM

NCI-H1623 (lung adenocarcinoma, adherent, top dose 20 µM)
AUC: 0.97 | IC50: > 20 µM

NCI-H1648 (lung adenocarcinoma, adherent, top dose 20 µM)
AUC: 0.518 | IC50: 1.41 µM

NCI-H1651 (lung adenocarcinoma, adherent, top dose 20 µM)
AUC: 0.987 | IC50: > 20 µM

NCI-H1666 (lung adenocarcinoma, semi-adherent, top dose 20 µM)
AUC: 0.978 | IC50: > 20 µM

NCI-H1688 (small cell lung carcinoma, adherent, top dose 20 µM)
AUC: 0.877 | IC50: > 20 µM

NCI-H1693 (lung adenocarcinoma, adherent, top dose 20 µM)
AUC: 0.977 | IC50: > 20 µM

NCI-H1694 (small cell lung carcinoma, suspension, top dose 20 µM)
AUC: 0.983 | IC50: > 20 µM

Lines with a small IC50 respond at low doses; a fit beyond the top or the lowest dose is shown as a bound at that dose. AUC sums up the same curve from the lowest dose to the 256-fold higher top dose: 1 means no effect, lower means more sensitive. The top dose, if marked as inferred, was derived from the fitted curves, not read from the paper.
